Source: article PMC13649712, “Role of PER-WDR5 interactions in the mammalian circadian clock” (Nature Communications, 2026)

T1: mouse CRY1 1-496 (PHR) (mouse, UniProt P97784 1-496)
T1 construct: pCoofy27; tag-free after cleavage; also called CRY1-PHR
T1 sequence (looked up): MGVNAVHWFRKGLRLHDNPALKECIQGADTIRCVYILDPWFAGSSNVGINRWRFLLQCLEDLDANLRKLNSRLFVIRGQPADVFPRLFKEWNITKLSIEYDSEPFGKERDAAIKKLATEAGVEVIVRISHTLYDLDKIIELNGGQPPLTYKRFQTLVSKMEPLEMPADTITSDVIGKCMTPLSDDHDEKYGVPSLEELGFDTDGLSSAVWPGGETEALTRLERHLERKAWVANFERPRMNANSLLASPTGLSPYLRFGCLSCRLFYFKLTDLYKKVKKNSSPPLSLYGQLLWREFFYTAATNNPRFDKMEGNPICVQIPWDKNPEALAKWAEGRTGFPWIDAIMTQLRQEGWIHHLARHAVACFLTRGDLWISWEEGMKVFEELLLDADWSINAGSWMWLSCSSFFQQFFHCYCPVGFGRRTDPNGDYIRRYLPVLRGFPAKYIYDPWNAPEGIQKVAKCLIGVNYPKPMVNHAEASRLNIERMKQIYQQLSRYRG


What was measured:
Details in all cases: both partners purified
mouse WDR5 22-334 [1] = target: T2, mouse WDR5 22-334 (mouse, UniProt P61965); assay: ITC; MicroCal PEAQ-ITC, 25 °C; 25 mM HEPES pH 7.5, 150 mM NaCl, 5% glycerol, 1 mM β-ME; 750 µM WDR5 (syringe) into 50 µM PER1, PER2 or RbBP5 (cell); 90 µM PER1 or PER2 (syringe) into 8 µM CRY1 1-496 (cell); one-site binding model; mean of triplicates
mouse WDR5 22-334 [2] = target: T2, mouse WDR5 22-334; assay: SEC; preformed equimolar complexes (PER1 + WDR5 overnight, hMLL1 + WDR5 2 h), 60 µM final, without inhibitor or with the WDR5 WIN site inhibitors Inh-4 or Inh-5 (PER1/WDR5) or Inh-4 (MLL1/WDR5), 1 h on ice; S200 10/300; 25 mM HEPES pH 7.5, 150 mM NaCl, 5% glycerol, 2 mM DTT
mouse CRY1 1-496 (PHR) = target: T1, mouse CRY1 1-496 (PHR); assay: ITC; MicroCal PEAQ-ITC, 25 °C; 25 mM HEPES pH 7.5, 150 mM NaCl, 5% glycerol, 1 mM β-ME; 750 µM WDR5 (syringe) into 50 µM PER1, PER2 or RbBP5 (cell); 90 µM PER1 or PER2 (syringe) into 8 µM CRY1 1-496 (cell); one-site binding model; mean of triplicates

| Kd (mouse WDR5 22-334 [1]) | binding result (mouse WDR5 22-334 [2]) | Kd (mouse CRY1 1-496 (PHR)) | binding result (mouse CRY1 1-496 (PHR)) | Binder |
| --- | --- | --- | --- | --- |
| > 100 µM | – | – | – | mouse PER1 […] R1111A R1113A (domain or fragment, also called PER1 R1111A R1113A WIN site mutant; source: E. coli Rosetta (DE3), purified essentially as the wild-type protein) not shown |
| – | binds | – | – | human MLL1 […] (WIN-SET) (domain or fragment, also called MLL1 WIN-SET fragment) not shown |
| 5.7 µM | – | 0.157 µM | – | mouse PER1 […] D1197A (domain or fragment, also called PER1 D1197A; WBM motif mutant; source: E. coli Rosetta (DE3), purified essentially as the wild-type protein) not shown |
| 13.5 µM | – | – | binds | mouse PER1 […] R1111A (domain or fragment, also called PER1 R1111A; WIN motif mutant; source: E. coli Rosetta (DE3), purified essentially as the wild-type protein) not shown |
| 16.2 µM | – | 0.196 µM | – | mouse PER1 […] R1111A D1197A (domain or fragment, also called PER1 R1111A D1197A double mutant; source: E. coli Rosetta (DE3), purified essentially as the wild-type protein) not shown |
